This note sets out measurements from publication PMC12820563, “FoxP3 forms a head-to-head dimer in vivo and stabilizes its multimerization on adjacent microsatellites”.

The list shows a part of the results.

The test concerns the target T1, MBP-FoxP1dN (Mus musculus, UniProt P58462 326-579).
T1 sequence: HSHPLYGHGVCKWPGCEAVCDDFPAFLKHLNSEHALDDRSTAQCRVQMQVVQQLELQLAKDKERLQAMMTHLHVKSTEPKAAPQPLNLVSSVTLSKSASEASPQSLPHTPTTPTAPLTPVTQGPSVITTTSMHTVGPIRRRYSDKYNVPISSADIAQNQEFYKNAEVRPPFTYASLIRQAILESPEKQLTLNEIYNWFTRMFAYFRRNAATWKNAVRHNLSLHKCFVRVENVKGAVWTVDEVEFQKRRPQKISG
Kind of test: PD-seq (MBP pull-down with sequencing); 20 mM Tris-HCl pH 7.5, 100 mM NaCl, 1.5 mM MgCl2, 0.4 uM protein, 0.1 uM dsDNA library, 30 min, room temperature, amylose pull-down; high values mean tight binding. To be noted: protein: recombinant; tags: His6-MBP; chain copies: 2; dsDNA, one strand shown. The procedure, abridged:
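E. coli-expressed mouse FoxP3 or FoxP1 fragment, N-terminus removed and tagged with His6-MBP, was used at 0.4 µM against 0.1 µM of a Klenow-filled degenerate double-stranded DNA library. After 30 min at room temperature in Tris pH 7.5 buffer with NaCl and MgCl2, complexes were pulled down on amylose resin and washed three times. Binding is pull-down over input reads-per-million enrichment from pooled replicates of the proteinase K-released, PCR-barcoded, Illumina-sequenced DNA.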
Take “GATGATTGTTCTCCCAGCTGATGAATTTCTGCTTTCGAGTAAACAAATTTTCCTAATCTTTCTGTTCAAGCGCCATCTAC”: the binding signal was 1.27 RPM ratio (pull-down/input).

Consider “GATGATTGTTCTCCCAGCTGATGAATTGGCGGGCTCGAGTAAACAAATTTTCCTAATCTTTCTGTTCAAGCGCCATCTAC”, for which the binding signal was 0.734 RPM ratio (pull-down/input).

For “GATGATTGTTCTCCCAGCTGATGAATTCGTTTAATCGAGTAAACAAATTTTCCTAATCTTTCTGTTCAAGCGCCATCTAC”, the binding signal is 0.974 RPM ratio (pull-down/input).

Take “GATGATTGTTCTCCCAGCTGATGAATTGTGGAAATCGAGTAAACAAATTTTCCTAATCTTTCTGTTCAAGCGCCATCTAC”: the binding signal was 1.12 RPM ratio (pull-down/input).

In the case of “GATGATTGTTCTCCCAGCTGATGAATTTCTGGACTCGAGTAAACAAATTTTCCTAATCTTTCTGTTCAAGCGCCATCTAC”, the binding signal was 0.827 RPM ratio (pull-down/input).

As for “GATGATTGTTCTCCCAGCTGATGAATTTGATCAATCGAGTAAACAAATTTTCCTAATCTTTCTGTTCAAGCGCCATCTAC”, the binding signal was 0.968 RPM ratio (pull-down/input).

Take “GATGATTGTTCTCCCAGCTGATGAATTGTGACGTTCGAGTAAACAAATTTTCCTAATCTTTCTGTTCAAGCGCCATCTAC”: the binding signal is 1.19 RPM ratio (pull-down/input).

Regarding “GATGATTGTTCTCCCAGCTGATGAATTTGACTGGTCGAGTAAACAAATTTTCCTAATCTTTCTGTTCAAGCGCCATCTAC”, the binding signal is 0.789 RPM ratio (pull-down/input).

“GATGATTGTTCTCCCAGCTGATGAATTAGAGCAGTCGAGTAAACAAATTTTCCTAATCTTTCTGTTCAAGCGCCATCTAC”: the binding signal is 0.822 RPM ratio (pull-down/input).

For “GATGATTGTTCTCCCAGCTGATGAATTTACGCCGTCGAGTAAACAAATTTTCCTAATCTTTCTGTTCAAGCGCCATCTAC”, the binding signal is 1.17 RPM ratio (pull-down/input).

Turning to “GATGATTGTTCTCCCAGCTGATGAATTCGGGTAATCGAGTAAACAAATTTTCCTAATCTTTCTGTTCAAGCGCCATCTAC”, the binding signal was 1.18 RPM ratio (pull-down/input).

On to “GATGATTGTTCTCCCAGCTGATGAATTCGATTCCTCGAGTAAACAAATTTTCCTAATCTTTCTGTTCAAGCGCCATCTAC”, for which the binding signal was 0.749 RPM ratio (pull-down/input).

“GATGATTGTTCTCCCAGCTGATGAATTCGATGCCTCGAGTAAACAAATTTTCCTAATCTTTCTGTTCAAGCGCCATCTAC”: the binding signal was 0.933 RPM ratio (pull-down/input).

“GATGATTGTTCTCCCAGCTGATGAATTGTGTCTGTCGAGTAAACAAATTTTCCTAATCTTTCTGTTCAAGCGCCATCTAC”: the binding signal was 1.09 RPM ratio (pull-down/input).

As for “GATGATTGTTCTCCCAGCTGATGAATTGTAGTCATCGAGTAAACAAATTTTCCTAATCTTTCTGTTCAAGCGCCATCTAC”, the binding signal is 1.14 RPM ratio (pull-down/input).

Consider “GATGATTGTTCTCCCAGCTGATGAATTGTGAACGTCGAGTAAACAAATTTTCCTAATCTTTCTGTTCAAGCGCCATCTAC”, for which the binding signal was 0.982 RPM ratio (pull-down/input).

As for “GATGATTGTTCTCCCAGCTGATGAATTTGGGCAGTCGAGTAAACAAATTTTCCTAATCTTTCTGTTCAAGCGCCATCTAC”, the binding signal is 0.806 RPM ratio (pull-down/input).

Take “GATGATTGTTCTCCCAGCTGATGAATTAAACAACTCGAGTAAACAAATTTTCCTAATCTTTCTGTTCAAGCGCCATCTAC”: the binding signal was 1.84 RPM ratio (pull-down/input).
